From paper PMC4336329 (PLoS ONE, 2015)
The whole screen tested about 310,000 compounds, of which about 2,200 (0.71%) showed an effect of 50% or more. The effect is printed as a negative number. This is one part of the list.

What follows are molecules tested against human ether-à-go-go-related gene (hERG) potassium channel (human, UniProt Q12809) (assay: primary screen, population patch clamp on CHO cells stably expressing hERG).
human ether-à-go-go-related gene (hERG) potassium channel, sequence (Q12809 whole entry, looked up): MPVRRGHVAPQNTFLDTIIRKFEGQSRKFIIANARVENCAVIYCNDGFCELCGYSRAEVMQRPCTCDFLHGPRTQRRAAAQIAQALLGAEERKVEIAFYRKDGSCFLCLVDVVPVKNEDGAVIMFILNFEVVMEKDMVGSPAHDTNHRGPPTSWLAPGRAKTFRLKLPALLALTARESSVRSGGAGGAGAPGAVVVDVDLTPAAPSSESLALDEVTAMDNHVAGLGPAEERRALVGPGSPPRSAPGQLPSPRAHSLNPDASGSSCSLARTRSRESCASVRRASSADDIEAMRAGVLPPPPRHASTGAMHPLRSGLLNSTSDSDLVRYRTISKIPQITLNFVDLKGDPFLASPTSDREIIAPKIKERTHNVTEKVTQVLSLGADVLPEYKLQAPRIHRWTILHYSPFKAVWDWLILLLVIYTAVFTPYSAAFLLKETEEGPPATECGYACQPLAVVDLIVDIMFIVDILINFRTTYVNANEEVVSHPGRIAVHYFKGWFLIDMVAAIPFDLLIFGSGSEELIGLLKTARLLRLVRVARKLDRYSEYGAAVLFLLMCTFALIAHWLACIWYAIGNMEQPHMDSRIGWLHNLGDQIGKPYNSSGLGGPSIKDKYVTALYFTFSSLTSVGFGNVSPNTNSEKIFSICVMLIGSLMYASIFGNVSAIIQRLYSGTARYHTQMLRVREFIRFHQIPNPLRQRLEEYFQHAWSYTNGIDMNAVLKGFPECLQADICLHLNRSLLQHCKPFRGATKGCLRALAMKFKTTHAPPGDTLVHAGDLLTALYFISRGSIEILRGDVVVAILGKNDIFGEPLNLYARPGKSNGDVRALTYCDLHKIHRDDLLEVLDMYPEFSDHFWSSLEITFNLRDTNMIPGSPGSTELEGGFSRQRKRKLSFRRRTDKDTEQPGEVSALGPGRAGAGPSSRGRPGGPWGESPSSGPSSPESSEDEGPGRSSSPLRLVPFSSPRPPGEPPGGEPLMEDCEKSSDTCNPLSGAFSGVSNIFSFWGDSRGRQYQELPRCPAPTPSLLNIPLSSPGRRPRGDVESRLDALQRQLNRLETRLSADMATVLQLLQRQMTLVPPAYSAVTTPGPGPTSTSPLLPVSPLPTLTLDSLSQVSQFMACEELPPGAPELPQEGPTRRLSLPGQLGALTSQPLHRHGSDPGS

Row | Compound | hERG current change (%, negative = inhibition) at 1uM [%]
1 | Nc1ccccc1Nc1cc(-c2cccc(Cl)c2)nn1-c1ccccc1 | 8.16
2 | CSc1ccccc1NC(=O)c1cnccn1 | 19
3 | CCN(CC(=O)NCc1ccc(Cl)cc1)C(=O)COc1cccc(Cl)c1 | -25.1
4 | COc1ccc(C(C(O)C(=O)c2c[nH]c3ccccc23)N2CCN(c3ccccc3)CC2)cc1 (centres unmarked) | 4.75
5 | COc1ccc(N2CCN(C(=O)CCCCCn3c(=O)[nH]c4ccsc4c3=O)CC2)cc1 | -8.68
6 | O=S1(=O)CC=C(CSC(=S)NC2CCS(=O)(=O)C2)C1 (centres unmarked) | 16.6
7 | Cn1c(=O)c(C(=O)CN2CC(=O)Nc3ccccc32)c(N)n(Cc2ccccc2)c1=O | 10.8
8 | CC(NC(=O)C(=O)NCCCn1ccnc1)c1ccccc1 (centres unmarked) | 19.7
9 | CN(C)C(=O)CSc1nnc(Cc2ccc([N+](=O)[O-])cc2)o1 | -1.73
10 | COc1ccc(N2CCN(S(=O)(=O)/C=C/c3ccccc3)CC2)cc1 | 8.05
11 | O=C(NCCc1ccc(Cl)cc1)c1cccs1 | 5.24
12 | CC(=O)N1CCN(c2ccc(NCc3ccc(C)s3)cc2)CC1.Cl | 9.64
13 | COc1ccc(CCNC(=S)Nc2ccc(S(=O)(=O)Nc3ncccn3)cc2)cc1OC | 19.5
14 | CC(=O)Nc1ccc(C(=O)NN2C(=O)NC3(CCCCC3)C2=O)cc1 | -1.05
15 | COc1cccc(C2CC(c3ccc(Br)cc3)=NN2C(=O)c2ccncc2)c1OC (centres unmarked) | -4.94
16 | COCCNC(=O)CSc1ccc(Cl)cc1 | 11.4
17 | O=C1c2oc3ccc(Cl)cc3c(=O)c2C(c2cccc(Br)c2)N1CCO (centres unmarked) | 0.327
18 | CC1(C)C=C2C(=NN(c3ccccc3)C(N)=C2C#N)CO1 | 11.8
19 | CC1CCN(S(=O)(=O)c2ccc(NC(=O)C3CCN(C(=O)c4ccco4)CC3)cc2)CC1 | 4.13
20 | CCC(C)(C)NC(=O)C(NS(=O)(=O)c1cccs1)c1ccccc1 (centres unmarked) | 13.9
21 | COc1ccc(OC)c(-c2csc(NC(=O)COC(=O)C3CC3)n2)c1 | 0.213
22 | COc1ccc(C(=O)N2CCCC(CCC(=O)NCc3ccc(F)c(F)c3)C2)cc1F (centres unmarked) | 0.257

Row | Compound | hERG current change (%, negative = inhibition) at 1uM [%]
23 | O=C(CCNS(=O)(=O)c1cccc2nsnc12)NCCC1=CCCCC1 | 9.06
24 | Cc1cc(C)cc(NC(=O)CN2C(=O)C3CC=CCC3C2=O)c1 (centres unmarked) | 9.57
25 | Cc1ccccc1CSc1nnc2ccc(-c3ccncc3)nn12 | 4.83
26 | Cn1cccc1Cc1nnc(SCC(=O)NCc2ccco2)n1CCc1ccccc1 | 1.13
27 | S=C(NCc1ccc(Cl)cc1)NC1CCCCC1 | 9.06
28 | COc1cccc(CCc2nnc(CCC(=O)NC(C)Cc3cccs3)o2)c1 (centres unmarked) | 6.48
29 | CCOc1ccc(N(C)S(=O)(=O)c2ccc3[nH]cc(C(=O)NCC4CCCO4)c(=O)c3c2)cc1 (centres unmarked) | 16.1
30 | CCNc1ccc(S(=O)(=O)NCCN(C)C)cc1[N+](=O)[O-] | -1.41
31 | COc1cccc(CN(C)CC(=O)NCc2ccc(F)cc2)c1OC | 11.7
32 | CN(C(=O)CN1C(=O)C2C3CC(C(Br)C3Br)C2C1=O)C1CCCCC1 (centres unmarked) | 5.39
33 | COc1ccc(C(=O)NN2CC(O)=C(c3nc4ccccc4n3C)C2=N)cc1OC | -3.87
34 | Cc1ccccc1NC(=O)CCn1c(=O)oc2ccccc21 | 2.76
35 | CCOc1ccccc1NC(=O)CSc1nnc(CCC(=O)Nc2ccccc2F)n1C | -2.14
36 | O=C(c1ccc2ccccc2c1)N1CCN(c2ccc(C(F)(F)F)cn2)CC1 | 2.21
37 | O=C(Cc1ncon1)Nc1ccc(F)c(F)c1F | 9.28
38 | COc1ccc2[nH]c(=O)c(CN(Cc3ccco3)C(=O)c3ccccc3)cc2c1 | 2.57
39 | O=S(=O)(c1ccc(SCc2ccccc2)nc1)N1CCCC1 | 0.479
40 | CCCn1cc(CN2CCC(n3nccc3NC(=O)C(OC)c3ccccc3)CC2)c(C)n1 (centres unmarked) | 0.452
41 | Cc1ccc2oc(C(=O)N3CCN(Cc4ncccc4C)CC3)c(C)c2c1 | -11.1
42 | CC(=O)Nc1ccc(NC(=O)C(C)OC(=O)CCC2CCCC2)cc1 (centres unmarked) | -5.53
43 | Cc1ccc(NC(=O)COc2ccc(/C=C3/NC(=O)NC3=O)cc2)cc1 | -6.68
44 | COc1cc(C)ccc1NC(=O)c1ccc(S(=O)(=O)N2CCOCC2)cc1 | 6.12
